# Measured values from publication PMC11995724, “Antibiotic target discovery by integrated phenotypic and activity-based profiling of electrophilic fragments” (Cell chemical biology, 2025).
# Screen size: about 3,200 compounds; about 110 (3.4%) showed an effect of 50% or more. The list shows a part of the results.
# Test system: T1, V. cholerae SAD30
# T1 construct: SAD30
# Parameters: species or system S. aureus MSSA476 (TSB) or V. cholerae SAD30 (LB); 384-well bacterial growth screen at 25 uM, OD600 relative to DMSO control
# Settings: relative growth, OD600, LB; 25 µM; inhibitor
row,SMILES,% of control remaining [%]
1,"CCOc1ccc2nc(NC(=O)CCl)sc2c1 [4-L10, 2-chloro-N-(6-ethoxy-1,3-benzothiazol-2-yl)acetamide]",94.3714
2,"C=CC(=O)NCCC(=O)NC1CCCCC12OCCO2 (stereo not drawn) [2-O08, N-[2-({1,4-dioxaspiro[4.5]decan-6-yl}carbamoyl)ethyl]prop-2-enamide]",88.9607
3,"Cl.O=C(CCl)Nc1ccc(CN2CCCCC2)cc1 [6-M04, 2-chloro-N-{4-[(piperidin-1-yl)methyl]phenyl}acetamide hydrochloride]",99.8009
4,"O=C(CCl)Cc1ccc(F)c(F)c1 [10-O17, 1-chloro-3-(3,4-difluorophenyl)propan-2-one]",19.3259
5,"NC(=O)COc1ccc(C(=O)CCl)cc1 [10-M07, 2-[4-(2-chloroacetyl)phenoxy]acetamide]",49.25
6,"N#CC(=Cc1cn(-c2ccccc2)nc1-c1ccc(Cl)cc1)C(N)=O [8-H16, 3-[3-(4-chlorophenyl)-1-phenyl-1H-pyrazol-4-yl]-2-cyanoprop-2-enamide]",69.4086
7,"CCCNC(=O)C(C#N)=Cc1cnc2c(C)cccn12 [9-N14, 2-cyano-3-{8-methylimidazo[1,2-a]pyridin-3-yl}-N-propylprop-2-enamide]",89.9388
8,"CC(Cl)C(=O)N1CCC(N(C)Cc2cc(=O)[nH]c(N(C)C)n2)C1 (stereo not drawn) [7-E18, 6-({[1-(2-chloropropanoyl)pyrrolidin-3-yl](methyl)amino}methyl)-2-(dimethylamino)-3,4-dihydropyrimidin-4-one]",74.938
9,"Cc1nn(-c2ccccc2)c(C)c1C=C(C#N)C(=O)Nc1nccs1 [9-E07, 2-cyano-3-(3,5-dimethyl-1-phenyl-1H-pyrazol-4-yl)-N-(1,3-thiazol-2-yl)prop-2-enamide]",86.9477
10,"CC(Cl)C(=O)N1CCCC1c1nc(N(C)C)no1 (stereo not drawn) [7-F19, 2-chloro-1-{2-[3-(dimethylamino)-1,2,4-oxadiazol-5-yl]pyrrolidin-1-yl}propan-1-one]",80.489
11,"CCOC(=O)c1c(NC(=O)C(C)Cl)sc2c1CCC(C)C2 (stereo not drawn) [5-D04, ethyl 2-(2-chloropropanamido)-6-methyl-4,5,6,7-tetrahydro-1-benzothiophene-3-carboxylate]",91.6255
12,"C=CC(=O)NCCN1CCCCC1C (stereo not drawn) [2-M09, N-[2-(2-methylpiperidin-1-yl)ethyl]prop-2-enamide]",90.5047
13,"C=CC(=O)N1CCC(O)(C(F)(F)C(N)=O)C1 (stereo not drawn) [2-C16, 2,2-difluoro-2-[3-hydroxy-1-(prop-2-enoyl)pyrrolidin-3-yl]acetamide]",94.2102
14,"COc1ccc(C=C(C#N)C(=O)Nc2c(C)cccc2C)cc1OC [8-A17, 2-cyano-3-(3,4-dimethoxyphenyl)-N-(2,6-dimethylphenyl)prop-2-enamide]",86.6757
15,"C=CC(=O)Nc1cnn(-c2ccncc2)c1C(F)F [1-O09, N-[5-(difluoromethyl)-1-(pyridin-4-yl)-1H-pyrazol-4-yl]prop-2-enamide]",88.4903
16,"CC(C)NC(=O)C(C#N)=Cc1cc(F)ccc1F [8-C08, 2-cyano-3-(2,5-difluorophenyl)-N-(propan-2-yl)prop-2-enamide]",74.0313
17,"Cc1ccc(-c2csc(NC(=O)CCl)n2)cc1C [5-F16, 2-chloro-N-[4-(3,4-dimethylphenyl)-1,3-thiazol-2-yl]acetamide]",91.9618
18,"C=CC(=O)NCc1cc(Cl)cc(S(C)(=O)=O)c1 [3-N15, N-[(3-chloro-5-methanesulfonylphenyl)methyl]prop-2-enamide]",93.8541
19,"C=CC(=O)Nc1cc(NC(=O)[C@H]2C[C@@H](C(C)=O)C2(C)C)ccc1F [2-H22, (1S,3R)-3-acetyl-N-[4-fluoro-3-(prop-2-enamido)phenyl]-2,2-dimethylcyclobutane-1-carboxamide]",103.783
20,"C=CC(=O)Nc1ccc2cc(N(C)C)ccc2c1 [1-E19, N-[6-(dimethylamino)naphthalen-2-yl]prop-2-enamide]",72.6457
21,"C=CC(=O)Nc1cc(NC(=O)C2(OC)CCOC2)ccc1F (stereo not drawn) [3-D05, N-[4-fluoro-3-(prop-2-enamido)phenyl]-3-methoxyoxolane-3-carboxamide]",99.5001
22,"Cc1cc(C(=O)CCl)c(C)n1-c1cc(Cl)cc(Cl)c1 [10-I04, 2-chloro-1-[1-(3,5-dichlorophenyl)-2,5-dimethyl-1H-pyrrol-3-yl]ethan-1-one]",87.746
23,"O=C(CCl)NCCc1nc2c(s1)CCCCC2 [4-J21, 2-chloro-N-(2-{4H,5H,6H,7H,8H-cyclohepta[d][1,3]thiazol-2-yl}ethyl)acetamide]",113.004

row,SMILES,% of control remaining [%]
1,"C=CC(=O)N1CCC(c2nnnn2C)CC1 [2-I06, 1-[4-(1-methyl-1H-1,2,3,4-tetrazol-5-yl)piperidin-1-yl]prop-2-en-1-one]",93.747
2,"COc1ccccc1C=CC=C(C#N)C(=O)Nc1ccccn1 [9-L17, 2-cyano-5-(2-methoxyphenyl)-N-(pyridin-2-yl)penta-2,4-dienamide]",76.2067
3,"O=C(CCl)NCc1ccccc1CS(=O)(=O)N1CCOCC1 [4-G08, 2-chloro-N-({2-[(morpholine-4-sulfonyl)methyl]phenyl}methyl)acetamide]",100.755
4,"N#CC(C(=O)Nc1ccc(Cl)cc1)=C(S)Nc1ccccc1 [8-H22, N-(4-chlorophenyl)-2-cyano-3-(phenylamino)-3-sulfanylprop-2-enamide]",67.777
5,"C=CC(=O)N1CCCc2cccc(F)c21 [1-L19, 1-(8-fluoro-1,2,3,4-tetrahydroquinolin-1-yl)prop-2-en-1-one]",87.8924
6,"CC(C)Cc1ccc(C(C)NC(=O)CCl)cc1 (stereo not drawn) [4-H03, 2-chloro-N-{1-[4-(2-methylpropyl)phenyl]ethyl}acetamide]",114.384
7,"CC(Cl)C(=O)N1CCC(n2ncc3ccccc32)C1 (stereo not drawn) [7-K04, 2-chloro-1-[3-(1H-indazol-1-yl)pyrrolidin-1-yl]propan-1-one]",86.833
8,"Cl.O=C(CCl)c1ccncc1 [10-M09, 2-chloro-1-(pyridin-4-yl)ethan-1-one hydrochloride]",-0.1559
9,"C=CC(=O)NCCn1nnnc1C [2-A03, N-[2-(5-methyl-1H-1,2,3,4-tetrazol-1-yl)ethyl]prop-2-enamide]",117.215
10,"CCC(=O)NC1CCN(C(=O)CCl)C1 (stereo not drawn) [5-G04, N-[1-(2-chloroacetyl)pyrrolidin-3-yl]propanamide]",99.359
11,"CC1CCN(C(=O)CCl)c2cc(Cl)ccc2S1 (stereo not drawn) [4-G16, 2-chloro-1-(7-chloro-2-methyl-2,3,4,5-tetrahydro-1,5-benzothiazepin-5-yl)ethan-1-one]",96.4417
12,"C=CC(=O)NCc1ccccc1-n1nc(C)cc1C [3-P19, N-{[2-(3,5-dimethyl-1H-pyrazol-1-yl)phenyl]methyl}prop-2-enamide]",109.204
13,"N#CC(=Cc1ccc(Cl)cc1Cl)C(N)=O [8-H17, 2-cyano-3-(2,4-dichlorophenyl)prop-2-enamide]",73.0795
14,"CC(NC(=O)C(C#N)=Cc1ccco1)c1cccc(-n2ccnc2)c1 (stereo not drawn) [9-H04, 2-cyano-3-(furan-2-yl)-N-{1-[3-(1H-imidazol-1-yl)phenyl]ethyl}prop-2-enamide]",88.8511
15,"C=CC(=O)N1CCC(n2ccnn2)CC1 [3-K09, 1-[4-(1H-1,2,3-triazol-1-yl)piperidin-1-yl]prop-2-en-1-one]",92.7954
16,"Cc1c(C=C(C#N)C(=O)Nc2ccccc2F)cc(C#N)n1C [8-A13, 2-cyano-3-(5-cyano-1,2-dimethyl-1H-pyrrol-3-yl)-N-(2-fluorophenyl)prop-2-enamide]",90.4827
17,"O=C(CCl)Nc1cccc(S(=O)(=O)N2CCOCC2)c1 [4-P08, 2-chloro-N-[3-(morpholine-4-sulfonyl)phenyl]acetamide]",121.458
18,"C=CC(=O)NC1(Cc2nnc3ccccn23)CCCCC1 [2-L03, N-[1-({[1,2,4]triazolo[4,3-a]pyridin-3-yl}methyl)cyclohexyl]prop-2-enamide]",109.341
19,"CCOC(=O)c1ccccc1NC(=O)CCl [4-B17, ethyl 2-(2-chloroacetamido)benzoate]",96.6142
20,"Cc1ccc(C=C(C#N)C(=O)Nc2cccc3ccccc23)cc1 [8-M14, 2-cyano-3-(4-methylphenyl)-N-(naphthalen-1-yl)prop-2-enamide]",75.3909
21,"C=CCNC(=O)C(C#N)=Cc1ccc(C)s1 [9-F05, 2-cyano-3-(5-methylthiophen-2-yl)-N-(prop-2-en-1-yl)prop-2-enamide]",77.8382
22,"C=CCNC(=O)C(C#N)=Cc1ccc(C)c(C)c1 [9-D21, 2-cyano-3-(3,4-dimethylphenyl)-N-(prop-2-en-1-yl)prop-2-enamide]",87.8994
